From the supplement of paper PMC11417369
± gives the standard deviation of the averaged measurements. Some of the results follow.

system: PfAP2-LT AP2 domain (GST-tagged); assay: gcPBM binding intensity (ln(normalized median fluorescence intensity)); higher = stronger DNA binding
In short: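 Each value is the highest Masliner-normalised natural-log median intensity across replicate spots of either orientation of a probe. The probes were primer-extended double-stranded 36-bp intergenic genomic sequences on an Agilent 4 × 180k array, alongside negative controls, exposed for 1 h to GST-tagged P. falciparum DNA-binding domains expressed in E. coli. Bound protein was picked up with Alexa488 anti-GST antibody and scanned at 488 nm.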

Row | Sequence | gcPBM binding intensity (ln)
1 | AACTTAAAAAAAAAAAAAAAAAAAAAAAAAAAAAAA [GTGCAC_negctrl_site34] | 8.08 ± 0.31
2 | AGAGAAGAAAACAAAACACACACATATATCTTAATA [CACACA_site8699] | 9.51 ± 0.34
3 | CTTAAATCTACTATTTGTACATATTTTATTATTAAA [XGTACX_site6151] | 8.68 ± 0.46
4 | TATTATAATAAAATATGTACACACATACACACATAT [XGTACX_site2360] | 9.43 ± 0.36
5 | AGAGGGGAAAACATGATGCACTAGTATAACCAAGAA | 9.06 ± 0.49
6 | TAGATATGTCTAAAAAGTACTTTCTATAACAATTCT [XGTACX_site6678] | 8.43 ± 0.47
7 | TTTCCTTATAAAAATACACACAAACTTTCATTAAAA [CACACA_site5953] | 8.48 ± 0.42
8 | TCATATTATTATATATGTACATACCAATATATTATA [XGTACX_site2988] | 8.75 ± 0.38
9 | AACACCAAACAAAGGTGTACATATAGGAAAAAATCT [XGTACX_site1006] | 9.07 ± 0.5
10 | TACACGCAGAAACACACACACACACCCATATATATA [CACACA_site637] | 10.1 ± 0.28
11 | TATCACATATTATGATGTACAAAGATTCTGACTAAT [XGTACX_site2770] | 8.63 ± 0.38
12 | TGTTATATATATACAAACATACACATTTATAAACAA [TGCATGCA_negctrl_site235] | 8.75 ± 0.31
13 | AAAAAAAGAAAAAAAACACACACAAATATAAATAAA [CACACA_site8309] | 9.46 ± 0.39
14 | GTTCAAATTCTTATACCTTTTTATTGAGCCATAATA [CACACA_negctrl_site210] | 8.59 ± 0.47
15 | TATTAATTTCTTTTTTCTCATCACTTTCAAAATGAA [CACACA_negctrl_site1055] | 8.21 ± 0.43
16 | TTATGATCATTTATATGTACACATAATTTTTGTGCT [XGTACX_site5568] | 9.03 ± 0.44
17 | AGCATATATTAAACATGTACATAAATATATTATATA [XGTACX_site1451] | 8.89 ± 0.47
18 | TTATTAAATGAAAAATGTACATATAAATGATTATAT [XGTACX_site2788] | 8.61 ± 0.34
19 | GAAATGTGTAGACACGCACACACAAAAAAATATATA [CACACA_site2912] | 9.76 ± 0.45
20 | ATGTATAAACATATATGTACTTAAATAAAATGTTAA [XGTACX_site4044] | 8.85 ± 0.42
21 | TAAAAAAACATATATTGTACGGAGATAATAATTTTT [XGTACX_site2946] | 8.62 ± 0.48
22 | AAAAATAAAAAAATAATAAAATAAAAAATAAAAAAT [TGCATGCA_negctrl_site89] | 8.79 ± 0.71
23 | TATACTGTCAATTCTACACACCATAGGGGGAGCATA [CACACA_site1875] | 9.35 ± 0.18

Row | Sequence | gcPBM binding intensity (ln)
24 | ATTAAAAGAACAATGTAAAAAAAGCAAATTAAAGAT [TGCATGCA_negctrl_site360] | 8.95 ± 0.57
25 | CACCAATTCATATGCACACACATCTGCATATTATAT [CACACA_site1773] | 9.51 ± 0.31
26 | AAAAAAAAAATACAGGTGCAATAAGAAAAAAATGGT | 9.13 ± 0.47
27 | TATATTAACAAAATGGTGCAATAATTTCTATATTAT [GTGCAC_site9857] | 8.62 ± 0.4
28 | TATACATATTTAATATGTACATAATAATACTTATTC [XGTACX_site6939] | 8.68 ± 0.38
29 | CCAAATTTATAAAGAACACACACATATATATATATA [CACACA_site7900] | 9.93 ± 0.11
30 | AAGCATGTAGAATAATGTACTTGTGATTTTAATATA [XGTACX_site8565] | 8.75 ± 0.51
31 | ATATTTTTTGTATGTTGTACATAAAATATACATTTT [XGTACX_site6815] | 8.71 ± 0.33
32 | AGATACTTTTTTAAAAGTACAAAAACTTTCGATATA [XGTACX_site959] | 8.4 ± 0.4
33 | TCTAAAATAGTCCAGAGTACAAGAAACCATAATATA [XGTACX_site5237] | 8.71 ± 0.47
34 | CATACATACATACATACACACATACATATATATATA [CACACA_site8388] | 9.56 ± 0.25
35 | ATATAGGTAATATTTTGTACATATTTTTGGGGTAGT [XGTACX_site5634] | 9.1 ± 0.34
36 | AATTCTTTTTTCAACACACACACACCCGAAAATATA [CACACA_site3111] | 9.66 ± 0.28
37 | TTCTAATATATGCATACACACAAATGTGAATATACA [CACACA_site2142] | 8.94 ± 0.41
38 | AAAAAAAAAAAAAACACACACACACCCAAATATATA [CACACA_site1169] | 10.2 ± 0.44
39 | ATATATTTATTTATATGTACATAATATTTTTCTCAG [XGTACX_site800] | 8.78 ± 0.47
40 | TTTTTTATTACTTTGTGTACTTACACAGAACCTTAT [XGTACX_site6038] | 8.88 ± 0.61
41 | AAAAATGCAATTTAATGTACACATAAGATGTTATTT [XGTACX_site6853] | 8.7 ± 0.43
42 | ATAAAAATATAAACATGTACATAAAAATCTATATAT [XGTACX_site405] | 8.96 ± 0.44
43 | TTGCTTATATTTCTAAAATGTAAAAGACACAAAGGT [XGTACX_negctrl_site225] | 8.54 ± 0.45
44 | AAAAAAGAAACAATCGCATGCAATGTTAATGTACAT [TGCATGCA_site395] | 9.36 ± 0.46
45 | TACGCAAAATAAAATCAAAATATAAGGAAAAAAAAA [TGCATGCA_negctrl_site578] | 8.46 ± 0.57
46 | AGGTGTCATATATGCACACAAAAGTAACACGCACCT [CACACA_site472] | 9.4 ± 0.36

Row | Sequence | gcPBM binding intensity (ln)
47 | TGAACAACTATTACTGCACACATTCTTACACTATAT [CACACA_site4533] | 9.41 ± 0.45
48 | TTTTTTAAACGTTTAAATAATTAAATATAAATAAAT [CACACA_negctrl_site1567] | 8.16 ± 0.39
49 | GATAATTTTTGCATATGTACTTAAAAATTAAAAATT [XGTACX_site7037] | 8.44 ± 0.4
50 | AAAAAAAAAAAAGGTACTACACACTATTATCAATAG [XGTACX_site161] | 8.73 ± 0.48
51 | GACCTACAAAAAGGCACACATATACTCATACATACA [CACACA_site5232] | 9.09 ± 0.48
52 | ACATTTATTTTGAATGGTACACTATTATTATGAAAT [XGTACX_site4384] | 8.59 ± 0.44
53 | GTGTAATGCTTATCGGTGCATATATATATATATATA | 10.13 ± 0.021
54 | TATCTCTACAAAATTTTATTCATTATTCATGTTATA [XGTACX_negctrl_site452] | 8.69 ± 0.44
55 | GTACAATAAGATGTAGCATGCCGTACCTTCACTACG [TGCATGCA_site235] | 8.95 ± 0.54
56 | TAATATTTATCAAGTCGTACATAAAATGTATAATAA [XGTACX_site1103] | 8.7 ± 0.44
57 | ACAAAGAAATATAATACACACAAGAATATATTGGAT [CACACA_site3901] | 9.3 ± 0.48
58 | CAAATAACAAAATAATGTACATTTATACTTTTTTTT [XGTACX_site943] | 8.62 ± 0.47
59 | TATACATATTTGTATTGTACATAAACTAAATCTTCA [XGTACX_site610] | 8.47 ± 0.4
60 | ATACTGTATGAAAGCACACATACTTATTACTAACAT [CACACA_site4164] | 9 ± 0.34
61 | AGGATTATATATTAATGTACCCGCGTTAATTTTTTT [XGTACX_site2878] | 8.93 ± 0.45
62 | AAATAGAGAAATACAAGTACATACTAAACCTATCTA [XGTACX_site1334] | 8.91 ± 0.61
63 | TCTAATAAAATAAATACATGCATACATACATACATA [TGCATGCA_site895] | 8.81 ± 0.32
64 | AAAATTTTTTTTATTTGTACACAATTCGATACATAA [XGTACX_site4804] | 8.59 ± 0.44
65 | TAAATAATCGCATAATGTACATATAATTTTTTTTTT [XGTACX_site4880] | 8.7 ± 0.49
66 | GCTTGGATATATTAATGTACTTATATATTATGTTGT [XGTACX_site3768] | 9.05 ± 0.4
67 | CCAATTCAAATATGCACACAAATTTGAAAACGATTA [CACACA_site3607] | 9.07 ± 0.33
68 | CTTTTGCCCAAAAAGGTACACACCACAATGTACATA [CACACA_site809] | 8.86 ± 0.43
69 | GTTAATATACATAAACGTACAGAATTATTATGAGTT [XGTACX_site5185] | 8.95 ± 0.35

Row | Sequence | gcPBM binding intensity (ln)
70 | TTTGTTGTTGTGAAACGTACTCATAGGATGTTGTAT [XGTACX_site5716] | 8.83 ± 0.38
71 | ATATTTTCAATGTTCACACATACACAAAAAAAAAAA [CACACA_site6077] | 8.62 ± 0.4
72 | AAAGATGGAGTGATATGTACTGATATATTATTATAT [XGTACX_site6500] | 8.95 ± 0.26
73 | AAGCATAAAGTATATAGTACATATATATATATATAT [XGTACX_site2945] | 9.43 ± 0.45
74 | ATTAAAAAATCCATAGTGCACTACGATAGGTTCCGA [GTGCAC_site9463] | 8.86 ± 0.35
75 | TTTTTTATTGTGATACGTATATTATTTTATGATAAA [CACACA_negctrl_site1591] | 8.52 ± 0.43
76 | TAAAAATGTAAACACACACACATAAATATATTTTAT [CACACA_site5397] | 9.45 ± 0.26
77 | ATATTTTAATTATAAAGTACATAAAAATATATAAAC [XGTACX_site6705] | 8.65 ± 0.45
78 | ATATAGTAAAGTTATACACACATGAATTTTCCCATA [CACACA_site7457] | 8.97 ± 0.45
79 | ATTCATATCTACTTCACACACATTTGATCATTCAAA [CACACA_site7207] | 9.15 ± 0.4
80 | ATGAAACAGTAACATTGTACTTTTACAAAAAAATAA [XGTACX_site806] | 8.69 ± 0.41
81 | ATAGTATTTTTTATTACACACAAATAAAAAGAAAAA [CACACA_site2087] | 8.75 ± 0.47
82 | AAAATCTATATTAACACACACACAAAAAAAAAAAAA [CACACA_site6738] | 9.44 ± 0.41
83 | TACATATAAATAATAACACACACCTAGGTACATGGA [CACACA_site838] | 9.22 ± 0.42
84 | TTTAAAAAAAATATGTGTACTTAATATTTTCATATA [XGTACX_site7421] | 8.41 ± 0.44
85 | CATACACAGAAACACACACACATATATATATATATA [CACACA_site4519] | 10.2 ± 0.3
86 | AGAAAGGAGGAAATAAAAGGACTTCTTTTTTTATAT [CACACA_negctrl_site810] | 8.44 ± 0.54
87 | TTTCATTTCACAGACACACACACACCCTATATTTCC [CACACA_site3906] | 9.82 ± 0.33
88 | ATATATATATATGTTAGTACTTATATTGAAATGGTA [XGTACX_site1406] | 9.05 ± 0.042
89 | ATAAATAAAACAAAATGTACAAATATTCATATATTC [XGTACX_site1307] | 8.84 ± 0.49
